# IC50 is the fitted dose that halves viability relative to control wells, and lower means more sensitive; a limit (>, <) means that the fit lies beyond the doses tested. AUC, from the same fit, is the share of area under the viability curve across the 256-fold dose range; values near 1 show little effect. For some of these results: An inferred top dose comes from the curve model; the source does not state it. For some of these results: An entry number marks a drug with two screens in the source, which often give different values.
# What was measured:
# Test in all cases: Viability of human cancer cell lines after 72 h of drug (GDSC screen)
# PI-103 = compound: Oc1cccc(-c2nc(N3CCOCC3)c3oc4ncccc4c3n2)c1 [PI-103]; settings: top dose 10.24 µM
# Procedure: (§1)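 Human cancer cell lines in 384-well plates, medium with 10% serum, drug for 72 h over a 256-fold dose range (nine 2-fold or five 4-fold steps up to the top dose). Adherent lines were fixed and stained with the nucleic acid dye Syto60, suspension lines read with resazurin; signal relative to control wells, capped at 0 and 100%. One two-parameter sigmoid per drug and line, fitted in a mixed model over all curves with the slope shared within a line.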
# UNC0638 = compound: COc1cc2c(NC3CCN(C(C)C)CC3)nc(C3CCCCC3)nc2cc1OCCCN1CCCC1 [UNC0638]
# Procedure: as §1
# BX-795 = compound: O=C(NCCCNc1nc(Nc2cccc(NC(=O)N3CCCC3)c2)ncc1I)c1cccs1 [BX-795]; settings: top dose 5 µM; top dose inferred
# Procedure: as §1
# Tretinoin = compound: CC1=C(/C=C/C(C)=C/C=C/C(C)=C/C(=O)O)C(C)(C)CCC1 [Tretinoin]; settings: top dose 10 µM; top dose inferred
# Procedure: as §1
# SB-505124 = compound: Cc1cccc(-c2[nH]c(C(C)(C)C)nc2-c2ccc3c(c2)OCO3)n1 [SB-505124]; settings: top dose 10 µM; top dose inferred
# Procedure: as §1
# GSK690693 = compound: CCn1c(-c2nonc2N)nc2c(C#CC(C)(C)O)ncc(OC[C@H]3CCCNC3)c21 [GSK690693]; settings: top dose 10.24 µM; top dose inferred
# Procedure: as §1
# [1] = top dose 20 µM, screen: GDSC drug entry 1236, top dose inferred
# [2] = top dose 40 µM, screen: GDSC drug entry 245
Cell Line,AUC (PI-103),IC50 (PI-103),AUC (UNC0638; [1]),IC50 (UNC0638; [1]),AUC (UNC0638; [2]),IC50 (UNC0638; [2]),AUC (BX-795),IC50 (BX-795),AUC (Tretinoin),IC50 (Tretinoin),AUC (SB-505124),IC50 (SB-505124),AUC (GSK690693),IC50 (GSK690693)
"PC-14 (lung adenocarcinoma, adherent)",0.757,3.19 µM,0.839,11.6 µM,0.656,6.41 µM,0.851,3.2 µM,0.98,> 10 µM,0.983,> 10 µM,0.922,> 10.2 µM
"PCI-4B (head and neck, adherent)",0.419,0.389 µM,0.823,11 µM,0.654,6.53 µM,0.762,1.7 µM,0.936,> 10 µM,0.958,> 10 µM,0.891,> 10.2 µM
"PCI-15A (head and neck, adherent)",0.621,1.38 µM,0.909,> 20 µM,0.985,> 40 µM,0.987,> 5 µM,0.969,> 10 µM,0.985,> 10 µM,0.926,> 10.2 µM
"PCI-30 (head and neck, adherent)",0.905,> 10.2 µM,0.816,14.4 µM,0.984,> 40 µM,0.836,4.43 µM,0.954,> 10 µM,0.98,> 10 µM,0.982,> 10.2 µM
"PE/CA-PJ15 (head and neck, adherent)",0.887,> 10.2 µM,0.891,> 20 µM,0.97,> 40 µM,0.895,> 5 µM,0.9,> 10 µM,0.984,> 10 µM,0.984,> 10.2 µM
"PEO1 (ovary, adherent)",0.987,> 10.2 µM,0.824,12.5 µM,0.902,> 40 µM,0.894,> 5 µM,0.987,> 10 µM,0.985,> 10 µM,0.987,> 10.2 µM
"PF-382 (T-cell lymphoblastic leukaemia, suspension)",0.341,0.247 µM,0.831,10.6 µM,0.533,3.03 µM,0.91,> 5 µM,0.987,> 10 µM,0.988,> 10 µM,0.731,2.62 µM
"PFSK-1 (medulloblastoma, adherent)",0.978,> 10.2 µM,0.691,4.47 µM,0.825,25.9 µM,0.887,> 5 µM,0.963,> 10 µM,0.888,> 10 µM,0.981,> 10.2 µM
"PL4 (pancreas, adherent)",0.893,> 10.2 µM,0.816,11.6 µM,0.917,> 40 µM,0.938,> 5 µM,0.987,> 10 µM,0.971,> 10 µM,0.987,> 10.2 µM
"QGP-1 (pancreas, adherent)",0.653,2.21 µM,0.895,> 20 µM,0.62,6.53 µM,0.975,> 5 µM,0.977,> 10 µM,0.973,> 10 µM,0.946,> 10.2 µM
"RC-K8 (B-cell lymphoma, suspension)",0.973,> 10.2 µM,0.978,> 20 µM,0.818,18.8 µM,0.992,> 5 µM,0.975,> 10 µM,0.971,> 10 µM,0.993,> 10.2 µM
"RCC-AB (kidney, adherent)",0.322,0.174 µM,0.975,> 20 µM,0.818,32.1 µM,0.921,> 5 µM,0.981,> 10 µM,0.977,> 10 µM,0.787,5.96 µM
"RCC-ER (kidney, adherent)",0.816,6.54 µM,0.97,> 20 µM,0.977,> 40 µM,0.905,> 5 µM,0.984,> 10 µM,0.939,> 10 µM,0.978,> 10.2 µM
"RCC-FG2 (kidney, adherent)",0.873,> 10.2 µM,0.979,> 20 µM,0.889,> 40 µM,0.86,> 5 µM,0.963,> 10 µM,0.908,> 10 µM,0.882,> 10.2 µM
"RCC-JF (kidney, adherent)",0.479,0.558 µM,0.944,> 20 µM,0.89,> 40 µM,0.756,1.91 µM,0.982,> 10 µM,0.921,> 10 µM,0.909,> 10.2 µM
"RCC-JW (kidney, adherent)",0.149,0.0503 µM,0.895,> 20 µM,0.888,> 40 µM,0.84,3.58 µM,0.984,> 10 µM,0.978,> 10 µM,0.819,6.01 µM
"RCC-MF (kidney, adherent)",0.531,0.798 µM,0.948,> 20 µM,0.822,32.9 µM,0.891,> 5 µM,0.972,> 10 µM,0.923,> 10 µM,0.965,> 10.2 µM
"RCM-1 (large intestine, adherent)",0.985,> 10.2 µM,0.866,> 20 µM,0.985,> 40 µM,0.968,> 5 µM,0.944,> 10 µM,0.909,> 10 µM,0.985,> 10.2 µM
"RERF-LC-KJ (lung adenocarcinoma, adherent)",0.774,4.13 µM,0.813,11.2 µM,0.833,26.9 µM,0.874,> 5 µM,0.985,> 10 µM,0.968,> 10 µM,0.984,> 10.2 µM
"RERF-LC-MS (lung adenocarcinoma, adherent)",0.706,2.47 µM,0.945,> 20 µM,0.905,> 40 µM,0.872,> 5 µM,0.944,> 10 µM,0.949,> 10 µM,0.985,> 10.2 µM

# — the supplement of paper PMC4967469
